Patent publication US20260265359A1 (Hoffmann-La Roche, published 2026)

B1: EB-105BI-Con4C (other)
heavy: QVQLQESGPGLVRPSQTLSLTCTVSGYSITSDHAWSWVRQPPGRGLEWIGYISYSGITTYNPSLKSRVTMLRDTSKNQFSLRLSSVTAADTAVYYCARSLARTTAMDYWGQGSLVTVSSASTKGPSVFPLAPSSKSTSGGTAALGCLVKDYFPEPVTVSWNSGALTSGVHTFPAVLQSSGLYSLSSVVTVPSSSLGTQTYICNVNHKPSNTKVDKKV[human IgG1 Fc skipped]GGSGGGGSGGGGSAQQEECEWDPWTCEHMLE
light: SDTGRPFVEMYSEIPEIIHMTEGRELVIPCRVTSPNITVTLKKFPLDTLIPDGKRIIWDSRKGFIISNATYKEIGLLTCEATVNGHLYKTNYLTHRQTNTIIDVVLSPSHGIELSVGEKLVLNCTARTELNVGIDFNWEYPSSKHQHKKLVNRDLKTQSGSEMKKFLSTLTIDGVTRSDQGLYTCAASSGLMTKKNSTFVRVHEKDIQMTQSPSSLSASVGDRVTITCRASQDISSYLNWYQQKPGKAPKLLIYYTSRLHSGVPSRFSGSGSGTDFTFTISSLQPEDIATYYCQQGNTLPYTFGQGTKVEIKRTVAAPSVFIFPPSDEQLKSGTASVVCLLNNFYPREAKVQWKVDNALQSGNSQESVTEQDSKDSTYSLSSTLTLSKADYEKHKVYACEVTHQGLSSPVTKSFNRGEC
notes: Trispecific antibody fusion protein, first embodiment; also called B21138007
B2: EB-105BI-15CB (other)
heavy: QVQLQESGPGLVRPSQTLSLTCTVSGYSITSDHAWSWVRQPPGRGLEWIGYISYSGITTYNPSLKSRVTMLRDTSKNQFSLRLSSVTAADTAVYYCARSLARTTAMDYWGQGSLVTVSSASTKGPSVFPLAPSSKSTSGGTAALGCLVKDYFPEPVTVSWNSGALTSGVHTFPAVLQSSGLYSLSSVVTVPSSSLGTQTYICNVNHKPSNTKVDKKV[human IgG1 Fc skipped]GGSGGGGSMGAQQKYQPLDELDKTLYDQFMLQQGLE
light: SDTGRPFVEMYSEIPEIIHMTEGRELVIPCRVTSPNITVTLKKFPLDTLIPDGKRIIWDSRKGFIISNATYKEIGLLTCEATVNGHLYKTNYLTHRQTNTIIDVVLSPSHGIELSVGEKLVLNCTARTELNVGIDFNWEYPSSKHQHKKLVNRDLKTQSGSEMKKFLSTLTIDGVTRSDQGLYTCAASSGLMTKKNSTFVRVHEKDIQMTQSPSSLSASVGDRVTITCRASQDISSYLNWYQQKPGKAPKLLIYYTSRLHSGVPSRFSGSGSGTDFTFTISSLQPEDIATYYCQQGNTLPYTFGQGTKVEIKRTVAAPSVFIFPPSDEQLKSGTASVVCLLNNFYPREAKVQWKVDNALQSGNSQESVTEQDSKDSTYSLSSTLTLSKADYEKHKVYACEVTHQGLSSPVTKSFNRGEC
notes: Trispecific antibody fusion protein, first embodiment; also called B21138005

Columns and labels:
[1] = biological target: T1, recombinant human VEGF-A165 (human, UniProt P15692-4 27-191); experiment: ELISA on plate-coated recombinant human VEGF-A165; anti-human IgG1-Fc-HRP, OD450
T1 sequence (looked up): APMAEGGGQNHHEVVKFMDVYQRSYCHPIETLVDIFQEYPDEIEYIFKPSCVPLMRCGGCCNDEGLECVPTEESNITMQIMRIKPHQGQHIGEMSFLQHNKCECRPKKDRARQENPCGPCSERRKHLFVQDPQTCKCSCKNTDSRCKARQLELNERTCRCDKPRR
Description: (§1) After non-specific blocking using 1% BSA at 25° C. for 1 hour, a series of dilutions of test antibodies (“Abs”) were added into the coated wells and incubated at 25° C. for 1 hour. The bound Abs were detected using a secondary Ab (goat anti-human IgG1-Fc) conjugated with HRP followed by OD₄₅₀ reading.

recombinant human PIGF = biological target: T2, recombinant human PIGF (human, UniProt P49763-2 19-149, limits assumed); experiment: ELISA on plate-coated recombinant human PIGF; anti-human IgG1-Fc-HRP, OD450
T2 construct: also called PlGF; placental growth factor
T2 sequence (looked up): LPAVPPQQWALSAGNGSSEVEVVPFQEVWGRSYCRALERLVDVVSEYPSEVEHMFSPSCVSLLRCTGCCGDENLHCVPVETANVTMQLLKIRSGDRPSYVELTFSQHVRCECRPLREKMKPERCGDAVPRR
Description: as §1

[2] = biological target: T1, recombinant human VEGF-A165; experiment: cell-based or functional assay
recombinant human IL-6R = biological target: T3, recombinant human IL-6R (human, UniProt P08887 20-365, limits assumed); experiment: ELISA on plate-coated recombinant human IL-6R; anti-human IgG1-Fc-HRP, OD450
T3 construct: Recombinant protein used in ELISA and as SPR analyte; also called hIL-6R
T3 sequence (looked up): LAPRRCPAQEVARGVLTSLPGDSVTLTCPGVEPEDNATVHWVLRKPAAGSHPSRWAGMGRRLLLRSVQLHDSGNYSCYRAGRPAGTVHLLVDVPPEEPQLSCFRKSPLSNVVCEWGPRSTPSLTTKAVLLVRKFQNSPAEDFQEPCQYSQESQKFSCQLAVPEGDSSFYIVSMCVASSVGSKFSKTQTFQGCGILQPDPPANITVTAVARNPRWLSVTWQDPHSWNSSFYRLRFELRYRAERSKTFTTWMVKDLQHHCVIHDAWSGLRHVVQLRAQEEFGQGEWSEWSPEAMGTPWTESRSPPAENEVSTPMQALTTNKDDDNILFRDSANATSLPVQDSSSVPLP
Description: as §1
The same ELISA procedure was performed with recombinant human IL-6R. […] Vobarilizumab is a single domain antibody against IL-6R. B781402 and B781405 are bispecific fusion antibodies that inhibit VEGF-A, B, PIGF and IL-6R.

recombinant human Ang-2 = biological target: T4, recombinant human Ang-2 (human, UniProt O15123 19-496, limits assumed); experiment: ELISA on plate-coated recombinant human Ang-2; anti-human IgG1-Fc-HRP, OD450
T4 construct: also called Angiopoietin-2; hAng-2
T4 sequence (looked up): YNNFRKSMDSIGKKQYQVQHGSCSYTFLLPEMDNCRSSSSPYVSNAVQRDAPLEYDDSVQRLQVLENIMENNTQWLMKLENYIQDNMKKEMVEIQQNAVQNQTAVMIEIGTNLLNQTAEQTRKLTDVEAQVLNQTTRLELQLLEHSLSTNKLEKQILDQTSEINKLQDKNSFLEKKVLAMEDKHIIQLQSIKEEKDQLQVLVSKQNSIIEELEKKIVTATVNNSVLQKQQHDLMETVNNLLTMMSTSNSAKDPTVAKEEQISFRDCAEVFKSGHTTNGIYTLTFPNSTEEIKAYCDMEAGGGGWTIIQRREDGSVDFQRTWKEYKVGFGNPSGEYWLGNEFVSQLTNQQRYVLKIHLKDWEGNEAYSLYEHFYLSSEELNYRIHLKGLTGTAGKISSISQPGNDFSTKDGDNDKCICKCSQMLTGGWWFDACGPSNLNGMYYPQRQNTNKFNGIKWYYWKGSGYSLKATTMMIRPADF
Description: as §1

Binder	EC50 [1] [nM]	EC50 (recombinant human PIGF) [nM]	IC50, inhibition of VEGF-A165-stimulated VEGFR-2 NF-AT luciferase reporter (HEK-293), luminescence [2] [nM]	EC50 (recombinant human IL-6R) [nM]	EC50 (recombinant human Ang-2) [nM]
B1	0.145	0.054	0.674	0.328	–
B2	0.069	0.076	–	0.08	0.139
